Reference: PubChem BioAssay AID1347165 (National Center for Advancing Translational Sciences (NCATS), 2019)
Out of some 220,000 compounds screened, about 5,700 (2.6%) were called active. Inconclusive means that the source gave no clear call. Such entries were picked first, then a sample of the others. Calls follow the shape of the dose curve; as a rule, active = well fitted inhibition curve with a large enough effect; inconclusive = small, poorly fitted or top-dose-only effect; inactive = no such curve, though single readings can be large or run the other way. Potencies of inconclusive entries are doubtful fits and often do not repeat.

Target: Lysine-specific demethylase 5B (Homo sapiens) (UniProt Q9UGL1)
Assay: Primary screen for KDM5B Histone Demethylases FDH-coupled qHTS; also: nearly all actives have a fitted effect of over 70% in size; as to activity change, negative = inhibition: 0% is about no effect
Settings: FDH-coupled NADH fluorescence (FDH is formaldehyde dehydrogenase); activity change, negative = inhibition: at 57.7 µM (top of the series) unless noted
In short: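 Measured: NADH fluorescence change, 30 min, RT. System: KDM5BΔAP 200 nM final, H3K4me3 peptide, α-KG, Fe(II), ascorbate, NAD⁺ plus FDH, pH 7.5 HEPES. Compounds: titrated, 10 min pre-incubation with enzyme.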
Potency is read from the fitted curve at half-maximal effect; tags tell the direction and shape of the fitted curve.

Sequence of UniProt Q9UGL1 (Q9UGL1 whole entry, looked up): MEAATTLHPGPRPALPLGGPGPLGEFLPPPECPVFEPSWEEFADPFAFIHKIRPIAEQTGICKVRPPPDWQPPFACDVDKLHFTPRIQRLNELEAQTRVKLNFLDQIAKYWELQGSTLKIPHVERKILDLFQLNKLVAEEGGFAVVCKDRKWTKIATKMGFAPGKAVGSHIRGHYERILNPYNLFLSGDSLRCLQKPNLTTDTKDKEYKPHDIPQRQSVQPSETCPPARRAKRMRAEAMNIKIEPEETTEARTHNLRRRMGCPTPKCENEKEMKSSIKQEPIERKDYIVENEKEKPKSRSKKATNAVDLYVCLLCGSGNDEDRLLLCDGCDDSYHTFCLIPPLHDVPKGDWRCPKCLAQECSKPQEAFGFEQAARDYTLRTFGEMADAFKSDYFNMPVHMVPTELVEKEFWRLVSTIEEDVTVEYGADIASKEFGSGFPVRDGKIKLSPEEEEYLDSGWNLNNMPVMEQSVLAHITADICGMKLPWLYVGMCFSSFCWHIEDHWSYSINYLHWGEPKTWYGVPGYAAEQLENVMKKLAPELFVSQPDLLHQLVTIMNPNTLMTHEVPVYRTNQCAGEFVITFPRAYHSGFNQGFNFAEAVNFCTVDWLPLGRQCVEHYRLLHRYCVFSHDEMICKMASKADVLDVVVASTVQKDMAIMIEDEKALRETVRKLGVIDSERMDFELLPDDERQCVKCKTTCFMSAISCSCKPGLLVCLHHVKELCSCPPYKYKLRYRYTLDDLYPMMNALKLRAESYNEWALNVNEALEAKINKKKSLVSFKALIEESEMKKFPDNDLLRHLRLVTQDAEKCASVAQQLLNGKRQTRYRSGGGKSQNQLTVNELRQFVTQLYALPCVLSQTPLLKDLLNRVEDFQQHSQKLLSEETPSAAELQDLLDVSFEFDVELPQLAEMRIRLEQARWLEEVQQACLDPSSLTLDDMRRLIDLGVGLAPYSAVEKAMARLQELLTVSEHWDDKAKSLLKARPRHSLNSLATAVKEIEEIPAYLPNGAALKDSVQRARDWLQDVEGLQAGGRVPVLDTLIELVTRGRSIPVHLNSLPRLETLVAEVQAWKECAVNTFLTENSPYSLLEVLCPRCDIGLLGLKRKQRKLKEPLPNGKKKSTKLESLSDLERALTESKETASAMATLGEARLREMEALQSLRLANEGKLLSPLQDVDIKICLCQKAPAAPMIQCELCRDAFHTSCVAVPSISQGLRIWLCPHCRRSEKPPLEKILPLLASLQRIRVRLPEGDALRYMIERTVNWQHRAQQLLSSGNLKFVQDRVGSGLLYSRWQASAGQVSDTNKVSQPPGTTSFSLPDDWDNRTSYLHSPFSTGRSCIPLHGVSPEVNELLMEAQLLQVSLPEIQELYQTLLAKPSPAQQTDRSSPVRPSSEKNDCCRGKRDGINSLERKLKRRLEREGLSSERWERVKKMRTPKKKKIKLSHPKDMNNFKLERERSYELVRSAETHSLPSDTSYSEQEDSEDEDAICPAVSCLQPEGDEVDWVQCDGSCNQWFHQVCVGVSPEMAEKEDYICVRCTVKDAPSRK

Compound	activity change, negative = inhibition	Potency
Cc1ccc(-c2noc(-c3ccc(N4CCCCC4)c([N+](=O)[O-])c3)n2)cc1	inactive: -20.1%	–
COCC(=O)NC[C@H]1O[C@H](Cc2cc(CN3CCNCC3)on2)CC[C@@H]1O	inactive: -23% [at 86.2 µM]	–
COc1ccc(N2CC(C(=O)N3CCC(C(=O)N4CCN(c5ncccn5)CC4)C3)NC2=O)cc1 (stereo not given)	–	inconclusive: 6.31 µM [inhibitor, partial curve, poor fit]
COCC(=O)N[C@H]1CC[C@]2(C)CC[C@@H]([C@H](C)C(=O)N3CCCCC3)[C@H](O)[C@H]2[C@@H]1C	inactive: 9.08% [at 86.2 µM]	–
CCCCCNC(=O)c1cc(-c2ccc(Cl)cc2)nc2ccccc12	inactive: 3.06%	–
CC1=C(C(=O)Nc2cccc(C(F)(F)F)c2)C(c2ccc(OC(F)F)cc2)NC(=O)N1 (stereo not given)	inactive: 12.2%	–
NC1CC(c2cc(N3CCN(c4cnccn4)CC3)nc(C3CC3)n2)C1 (stereo not given)	–	inconclusive: 12.6 µM [inhibitor, partial curve, poor fit]
O=C(c1ccoc1)N1CCC(Oc2ncccc2C(=O)N2CCOCC2)C1 (stereo not given)	inactive: -12.4%	–
C/C(=N/Nc1ccc(Cl)cc1)c1ccc(Br)s1	inactive: -12.7%	–
O=C1CSC2(CCN(S(=O)(=O)c3ccc(F)cc3)CC2)N1Cc1ccco1	–	inconclusive: 28.2 µM [inhibitor, partial curve]
COc1ccc(Nc2cc3c(cn2)CN(CCc2ccccc2)CCN3)cc1	–	inconclusive: 28.2 µM [inhibitor, single point]
Cc1ccc(NC(=S)N(CCN2CCOCC2)Cc2cc3cc4c(cc3[nH]c2=O)OCCO4)cc1	–	inconclusive: 25.1 µM [inhibitor, partial curve, poor fit]
CCCCNCc1ccc(-c2ccc(C(C)O)cc2)o1 (stereo not given)	inactive: -8.48%	–
OC1(CN2CCN(c3nccs3)CC2)CCCNC1 (stereo not given)	–	inconclusive: 22.4 µM [inhibitor, partial curve, poor fit]
CC(=O)N(CCC1(Cc2ccccc2)CCOC(C)(C)C1)Cc1ccccc1 (stereo not given)	inactive: 0.612%	–
CCc1ccc(NC(=O)Cn2ccn3nc(-c4ccc(F)cc4)c(CO)c3c2=O)cc1	–	inconclusive: 39.8 µM [inhibitor, single point]
C[S+](=O)([O-])CCn1ncc2cc(OCc3cccc(-c4cccc(F)c4)c3)ccc21	–	inconclusive: 44.7 µM [inhibitor, partial curve, poor fit]
CCC(C)NC(=O)c1ccc(CNC(=O)C2CCCCC2)cc1 (stereo not given)	inactive: 7.43%	–
O=[N+]([O-])c1ccc(S(=O)(=O)N2CCN(Cc3ccco3)CC2)cc1	–	inconclusive: 2.82 µM [inhibitor, full curve, poor fit]
COc1cccc(Nc2c(-c3ccc(O)c(OC)c3)nc3ccc(Cl)cn23)c1	–	inconclusive: 39.8 µM [inhibitor, single point]
